# Among all 310,000 compounds or so, about 2,200 (0.71%) showed an effect of 50% or more. Effects have a minus sign here. This is one part of the list.
# Target: human ether-à-go-go-related gene (hERG) potassium channel (human, UniProt Q12809)
# Test: primary screen, population patch clamp on CHO cells stably expressing hERG
# Chain of human ether-à-go-go-related gene (hERG) potassium channel (Q12809 whole entry, looked up): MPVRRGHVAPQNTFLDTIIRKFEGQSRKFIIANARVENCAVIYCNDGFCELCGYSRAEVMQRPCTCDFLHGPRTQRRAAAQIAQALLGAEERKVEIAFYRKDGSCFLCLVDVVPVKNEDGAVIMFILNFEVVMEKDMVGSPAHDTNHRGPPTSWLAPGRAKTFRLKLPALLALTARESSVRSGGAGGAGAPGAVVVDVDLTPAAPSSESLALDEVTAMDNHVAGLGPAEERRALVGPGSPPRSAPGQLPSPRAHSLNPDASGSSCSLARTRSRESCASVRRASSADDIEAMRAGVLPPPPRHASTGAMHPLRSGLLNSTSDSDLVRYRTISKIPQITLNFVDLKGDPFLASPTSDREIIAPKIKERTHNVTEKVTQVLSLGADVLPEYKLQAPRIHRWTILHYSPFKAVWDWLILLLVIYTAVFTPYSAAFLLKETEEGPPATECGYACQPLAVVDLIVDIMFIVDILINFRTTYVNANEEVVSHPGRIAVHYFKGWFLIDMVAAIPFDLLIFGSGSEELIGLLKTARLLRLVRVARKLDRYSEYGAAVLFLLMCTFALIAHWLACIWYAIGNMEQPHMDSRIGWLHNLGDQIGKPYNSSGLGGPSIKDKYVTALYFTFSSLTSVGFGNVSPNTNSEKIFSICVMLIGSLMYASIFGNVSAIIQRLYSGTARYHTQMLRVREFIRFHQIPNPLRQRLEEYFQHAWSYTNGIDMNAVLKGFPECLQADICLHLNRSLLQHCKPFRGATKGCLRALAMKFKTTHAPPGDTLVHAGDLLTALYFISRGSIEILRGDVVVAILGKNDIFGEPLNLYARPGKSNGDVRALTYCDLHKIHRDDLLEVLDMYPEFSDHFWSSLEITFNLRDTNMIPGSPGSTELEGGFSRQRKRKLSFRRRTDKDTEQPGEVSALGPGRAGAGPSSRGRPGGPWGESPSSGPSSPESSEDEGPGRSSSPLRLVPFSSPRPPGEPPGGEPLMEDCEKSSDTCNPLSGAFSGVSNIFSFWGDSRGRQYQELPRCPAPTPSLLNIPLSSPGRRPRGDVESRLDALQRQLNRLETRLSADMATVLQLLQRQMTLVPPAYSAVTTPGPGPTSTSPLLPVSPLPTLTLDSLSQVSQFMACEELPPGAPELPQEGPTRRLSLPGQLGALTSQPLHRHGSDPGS
row,Structure (SMILES),"hERG current change (%, negative = inhibition) at 1uM"
1,CN(c1ccccc1)S(=O)(=O)c1ccc(NC(=O)c2ccccc2)cc1,3.08%
2,Cc1nn(CC(=O)NCC(C)c2ccccc2)c(=O)c2cccn12 (stereo not drawn),20.7%
3,Cc1ccc2c(c1)c(CC(=O)Nc1ccc(C)c(F)c1)c(C(=O)O)n2C,-0.143%
4,Cc1ccc(OCC(=O)Nc2ccc(N3CCOCC3)cc2)cc1,-0.0361%
5,CCCCN(C)CCCNC(=O)c1ccc(N2CCCC2=O)cc1,8.33%
6,CCOC(=O)C1=C(O)C(=O)N(c2ccc(S(N)(=O)=O)cc2)C1c1ccc(Cl)cc1 (stereo not drawn),10.4%
7,COc1ccc(/C=N/Nc2nnc(Cc3ccccc3)c(=O)[nH]2)cc1,-0.382%
8,N#Cc1ccc(Cl)cc1NC(=O)COC(=O)c1ccc2c(c1)OCCO2,7.44%
9,N#C/C(=C\c1ccc([N+](=O)[O-])cc1)c1nc(C2CC2)cs1,11.2%
10,Cc1cccc(OCC(O)Cn2c(N3CCCCC3)nc3c2c(=O)n(C)c(=O)n3C)c1 (stereo not drawn),9.01%
11,O=C(c1cc(S(=O)(=O)N2CCC3(CC2)OCCO3)ccc1F)N1CCCCC1,0.881%
12,O=C(NCc1cccs1)c1cc(S(=O)(=O)N2CCCCC2)ccc1Cl,8.11%
13,COc1ccccc1N1CCN(C(CNS(=O)(=O)c2ccc(C)cc2)c2cccnc2)CC1 (stereo not drawn),-0.447%
14,Cc1cc(NC(=O)CN2C(=O)/C(=C/c3cccc(Br)c3)SC2=S)no1,5.26%
15,O=C(Nc1ccc(Br)cc1Cl)N1CCOCC1,13%
16,COc1ccc(NC(=O)C(C)N2C(=O)C3CC=C(Cl)CC3C2=O)cc1 (stereo not drawn),18.7%
17,COc1ccc(OCCCC(=O)Nc2cccc([N+](=O)[O-])c2)cc1,11.2%
18,Cc1ccc(S(=O)(=O)N2CCN(C(=O)COC(=O)c3cnc(C)cn3)CC2)c(C)c1,23%
19,O=C(CN(c1ccccc1)S(=O)(=O)c1ccccc1)NCCSCc1ccco1,5.01%
20,COc1ccc(Cl)cc1N1C(=N)SCC1=O,14.1%
21,c1coc(Cn2c(SCc3nc4ccccc4[nH]3)nnc2-c2cccs2)c1,-9.01%

row,Structure (SMILES),"hERG current change (%, negative = inhibition) at 1uM"
1,CN(c1ccccc1)S(=O)(=O)c1cccc(NC(=O)CSc2n[nH]c(N)n2)c1,9.25%
2,Clc1ccc(Nc2ccc3ccccc3n2)cc1,15.9%
3,O=C1N(Cc2cccnc2)C[C@@H]2C[C@@H](c3cccc(OCc4ccccc4)c3)N3CCC[C@@]123,-17.8%
4,COc1cc(C2NC(=O)NC(C)=C2C(=O)OC2CCC(C)CC2)ccc1O (stereo not drawn),12.1%
5,CSCCC(NC(=O)C1CCC(C)CC1)C(=O)NCc1ccco1 (stereo not drawn),-2.35%
6,Cc1onc(-c2c(Cl)cccc2Cl)c1C(=O)N/N=C(\N)COc1ccc(Cl)cc1,7.1%
7,Cc1ccc(C)c2[nH]c(=O)c(CN(Cc3ccco3)S(=O)(=O)c3ccc4c(c3)OCCO4)cc12,14.8%
8,Cc1cc2nn(-c3ccccc3)nc2cc1NC(=O)c1cccs1,0.654%
9,COc1ccc(C(c2oc(CO)cc(=O)c2O)c2oc(CO)cc(=O)c2O)cc1OC,10.1%
10,COc1ccccc1N(CC(=O)NC1CCCCC1)C(=O)CCC(=O)Nc1ccccn1,3.09%
11,COc1ccc(Cc2nnc(SCC(=O)NCc3ccco3)o2)cc1,8.45%
12,CCOc1ccc(C(=O)NNC(=O)CN2C(=O)NC3(CCCC3)C2=O)cc1,0.935%
13,Cc1cc(C(F)(F)F)cc(NNC(=O)NC(=O)c2c(F)cccc2Cl)n1,-0.544%
14,Clc1ccc(CSc2snnc2-c2ccccc2)cc1,9.74%
15,Cc1ccc(OCC(=O)N2c3ccccc3CC2C)c([N+](=O)[O-])n1 (stereo not drawn),10.5%
16,O=C(Oc1c(-c2ccccc2)c(=O)n2c3c(cccc13)CC2)c1ccc(F)cc1,19.5%
17,Cc1cc(NC(=O)CCC(=O)N(c2cccc(F)c2)C(C(=O)NC2CCCC2)c2ccc(C)o2)no1 (stereo not drawn),4.39%
18,COc1cccc(CNC(=O)COC(=O)CN2C(=O)NC3(CCCCC3C)C2=O)c1 (stereo not drawn),19.1%
19,COc1ccc(NC(=O)C2CCCCN2N)cc1OC (stereo not drawn),13.5%
20,CCOC(=O)Cc1c(C)nc2c(-c3ccc(Cl)cc3)c[nH]n2c1=O,8.09%
21,N#C/C(=C\C=C\c1ccccc1[N+](=O)[O-])C(=O)NC1CCCCC1,10.3%

# From paper PMC4336329 (PLoS ONE, 2015)
